Test results taken from PubChem BioAssay AID1345082 (National Center for Advancing Translational Sciences (NCATS), 2018).
Where “and” joins values, the source holds several entries; their conditions need not be identical. Equal entries are not always repeated. About 4,000 (4.3%) of roughly 94,000 compounds were called active. Inconclusive results, whose numbers are uncertain, are shown with a selection of clear calls. The call rests on the fitted dose curve; in most records, active means well fitted inhibition curve with a large enough effect; inconclusive means small, poorly fitted or top-dose-only effect; inactive means no such curve, though single readings can be large or run the other way. Potencies beside an inconclusive call are fits to weak or partial responses and may not hold up.

Experiment: Cytotoxic Profiling in NIH 3T3 Cell Line of Diverse Libraries Using Quantitative High-Throughput Screening; further: nearly all actives have a fitted effect of over 55% in size
Conditions: NIH 3T3 viability, CellTiter-Glo ATP luminescence, 48-72 h; series mostly up to 96.7 µM
Summary of the method: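 Luminescent ATP readout (CellTiter-Glo, 10 min RT) after 48 or 72 hr compound exposure of NIH 3T3 cells seeded at 400 cells/well in 1536-well format; quantitative HTS.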
Potency means the concentration at half of the fitted maximal effect; tags describe the fitted curve by direction and shape.

| SMILES | Potency |
| --- | --- |
| Cc1ccc(C)c(S(=O)(=O)c2nnn3c2nc(NCc2ccc(F)cc2)c2ccccc23)c1 | active: 28.2 µM |
| COc1ccc(-c2noc(Nc3ccc(OC)c(OC)c3)n2)cc1 | inconclusive: 44.7 µM [inhibitor, partial curve, poor fit] |
| Cc1ccc(C)c(C(=O)N2CCN(c3cc(-c4ccc(Cl)cc4)[nH]n3)CC2)c1 | inconclusive: 11.2 µM [inhibitor, full curve, poor fit] |
| COc1cccc(NC(=O)c2ccc3c(c2)NC(C)(COc2ccc4[nH]ccc4c2)CO3)c1 (stereo unspecified) | active: 12.6 µM |
| COc1cccc(CN2CCCCCNC(=O)[C@@H]3CCC[C@@H]32)c1 | inconclusive: 70.8 µM [inhibitor, partial curve, poor fit] |
| O=C(NCC(F)(F)F)C1CCN(c2ccnc3ccnn23)CC1 | inconclusive: 56.2 µM [inhibitor, partial curve, poor fit] |
| Cc1nc(-c2c3n(c(=O)n(CC(=O)Nc4ccc(C(C)C)cc4)c2=O)CCCCC3)no1 | inactive |
| CN(C)CCOCC1(C)COc2ccc(C(=O)Nc3cccc(N(C)C)c3)cc2N1 (stereo unspecified) | inconclusive: 89.1 µM [inhibitor, partial curve, poor fit] |
| O=C1[C@@H]2C[C@@H](O)CN2C2(CN(Cc3ccc(C(F)(F)F)cc3)C2)C(=O)N1Cc1ccccc1F | inconclusive: 89.1 µM [inhibitor, single point] |
| OC(c1cccc(C(F)(F)F)c1)c1nc(Nc2ccccc2)n[nH]1 (stereo unspecified) | inconclusive: 100 µM [inhibitor, partial curve, poor fit] |
| Cc1ccccc1-c1nccc2c(=O)cc(-c3cccnc3)oc12 | active: 25.1 µM |
| COc1ccc(-c2nc(-c3c(C)noc3C)cc3[nH]c(C)cc23)cn1 | inconclusive: 22.4 µM [inhibitor, full curve] |
| O=C(c1ccoc1)N1CCC(N2C[C@H](Oc3ccccc3)[C@@H]2c2ccncc2)CC1 | inactive |
| O=C1NCCCCCN(Cc2cccc(F)c2)[C@@H]2C[C@@H](C(=O)N3CCc4ccccc4C3)C[C@H]12 | inconclusive: 44.7 µM [inhibitor, partial curve, poor fit] |
| O=C(Nc1ccccc1)N1CCC2(CC1)CC(=O)N(c1ccccc1)c1ccccc1O2 | inconclusive: 44.7 µM [inhibitor, partial curve, poor fit] |
| COCCN1C(=O)[C@@H]2C[C@@H](CN2Cc2ccccc2)Oc2ccccc21 | inactive |
| O=C(Cn1c(=O)c2c(n1Cc1ccccc1)CN(Cc1ccccc1)CC2)N1CCC(c2ccccc2)CC1 | inconclusive: 70.8 µM [inhibitor, single point] |
| CC(C)NC(=O)N1Cc2ccccc2OC2(CCN(C(=O)c3ccc4[nH]ccc4c3)CC2)C1 | inconclusive: 70.8 µM [inhibitor, partial curve, poor fit] |
| Cc1cc(CNC(=O)c2ccc(S(=O)(=O)NCC(F)F)cc2)on1 | inactive |
| CCOc1ccccc1C(=O)N1CCN(c2cc(C(F)(F)F)nc(C)n2)CC1 | inconclusive: 44.7 µM [inhibitor, partial curve, poor fit] |
| C[C@H](C(=O)NCCN1CCOCC1)C1CC[C@@]2(C)Cc3sc(CS(=O)(=O)C(C)(C)C)nc3[C@@H](C)[C@@H]2[C@H]1O (stereo partly specified) | inactive |
| COc1ccc(Cl)cc1S(=O)(=O)N1CCC(n2cnnc2-c2ccccc2)CC1 | inconclusive: 44.7 µM [inhibitor, partial curve, poor fit] |

| SMILES | Potency |
| --- | --- |
| O=C(c1ccccn1)N1CC(Oc2ccc(F)cc2F)C1 | inactive |
| O=C(NCCc1ccccc1)N(C1CCOCC1)C1CCN(Cc2cccc(F)c2)CC1 | inconclusive: 70.8 µM [inhibitor, partial curve, poor fit] |
| Cn1cc(C2CC2)c2nc(COc3ccccc3)cn2c1=O | inconclusive: 100 µM [inhibitor, partial curve, poor fit] |
| COc1ccc(Cl)cc1C(=O)N1CCC2(CC1)N=C(c1ccc(C)cc1)NO2 | inactive |
| Clc1ccc(-c2noc([C@@H]3Cc4nc[nH]c4CN3CC3CCCCC3)n2)cc1 | active: 28.2 µM |
| O=C(NCCC1=CCCCC1)C1(CCO)CC12CCOCC2 (stereo unspecified) | inactive |
| COc1ccccc1CN1CC(CNC(=O)Nc2ccccc2)C2(C1)CN(c1ccccc1)C2 (stereo unspecified) | inconclusive: 70.8 µM [inhibitor, single point] |
| O=C(NCc1ccccc1)c1ccc2nc(-c3ccnc(Cl)c3)oc2c1 | inactive |
| Cc1ccc(C2NC(=O)N(CC(=O)Nc3cc(F)ccc3F)C3=C2C(=O)OC3)cc1 (stereo unspecified) | inactive |
| COCCn1ncc(N2CCCC(CC(=O)NCc3ccc(OC)cc3)C2)cc1=O (stereo unspecified) | inactive |
| Cc1cc(C2CCCN2C(=O)c2ccc(-c3ccccc3Cl)o2)no1 (stereo unspecified) | inconclusive: 50.1 µM [inhibitor, partial curve, poor fit] |
| COCCn1c(C)nnc1-c1cc(-c2ccnc(OC)c2)ccn1 | inconclusive: 56.2 µM [inhibitor, partial curve, poor fit] |
| Cc1noc(C)c1-c1cc2cc(CN(C)C)oc2c(NCc2cccnc2)n1 | inconclusive: 10 µM [inhibitor, full curve, poor fit] |
| O=C(NCc1cccs1)C1CCN(Cc2ccccc2-c2cccnc2)CC1 | inactive |
| N[C@@H]1CCN(C(=O)c2ccccc2OC(F)(F)C(F)F)C[C@H]1O | inactive |
| COc1ncccc1-c1cnc2[nH]cc(CC(=O)NC3CC3)c2c1 | active: 25.1 µM |
| O=C(Cc1cccc(F)c1)N1CCC2(CCC(=O)N(CC3CC3)CC2)CC1 | inconclusive: 31.6 µM [inhibitor, partial curve, poor fit] |
| COC[C@H]1NC(=O)CC[C@H]1C(=O)NCc1cccc(C(F)(F)F)c1 | inactive |
| Cn1cc(-c2ccc(CO)cc2)c2nc(COc3ccccc3)cn2c1=O | inconclusive: 56.2 µM [inhibitor, partial curve, poor fit] |
| COc1ccccc1CCC(=O)N1CCC2(CC1)N=C(c1ccc(C)cc1)NO2 | inactive |
| CN1CCN(Cc2ccc(Nc3ncc(-c4cccnc4)c4c3OCC4)cc2)CC1 | inconclusive: 50.1 µM [inhibitor, partial curve, poor fit] |
| CCN1c2cc(C(=O)NCc3ccccc3OC)ccc2C(=O)N2CCCCCC21 (stereo unspecified) | inconclusive: 39.8 µM [inhibitor, partial curve, poor fit] |

| SMILES | Potency |
| --- | --- |
| COc1cccc(CCNC(=O)c2c(C)noc2-c2cc(OC)c(OC)c(OC)c2)c1 | inconclusive: 28.2 µM [inhibitor, partial curve] |
| CSc1ccccc1OCc1cc(C(=O)NCCN2CCCCC2CO)no1 (stereo unspecified) | inconclusive: 89.1 µM [inhibitor, partial curve, poor fit] |
| COc1ccc2[nH]c3c(c2c1)CCNC31CCN(C(=O)Cc2cccc(F)c2)CC1 | inconclusive: 44.7 µM [inhibitor, partial curve, poor fit] |
| CN1C(=O)Cc2cc(C(=O)NC3CCCCC3)ccc21 | inactive |
| Cc1ncoc1C(=O)N1CCCN(S(C)(=O)=O)C(c2ccccc2)CC(=O)NCC1 (stereo unspecified) | inactive |
| O=C(CN1CC2CC(C1)[C@H]1CCCC(=O)N1C2)NCc1ccc(F)cc1F (stereo partly specified) | inactive |
| CC(C)CN1CCN(C(=O)C2CCCN(S(C)(=O)=O)CCC(=O)NCC2)CC1 (stereo unspecified) | inactive |
| CCN(CC)C(=O)N1CCC(c2noc(COc3ccc(F)cc3)n2)C1 (stereo unspecified) | inconclusive: 44.7 µM [inhibitor, partial curve, poor fit] |
| CCN1C(=O)C2(CCN(S(=O)(=O)c3cn(C)cn3)CC2)c2ccccc21 | inactive |
| Cc1ccc(CNC(=O)N2CC(c3nc(CCOCc4ccccc4)no3)C2)cc1 | inconclusive: 50.1 µM [inhibitor, partial curve, poor fit] |
| COCCNC(=O)C1CCCN(Cc2cccc(-c3ccc(F)cc3F)c2)C1 (stereo unspecified) | inconclusive: 50.1 µM [inhibitor, partial curve, poor fit] |
| Cc1ccsc1-c1[nH]nc2ncc(-c3ccccc3F)nc12 | inconclusive: 50.1 µM [inhibitor, partial curve, poor fit] |
| O=C(NC1CCN(Cc2cccc(-c3cccs3)c2)CC1)c1ccccc1F | inactive and inconclusive: 70.8 µM [inhibitor, single point] |
| COc1ccccc1CNC(=O)C1CCN(C(=O)c2ncn3c2COC(c2ccccc2)C3)CC1 (stereo unspecified) | inactive |
| CCN(CC)C(CNc1ncncn1)c1ccco1 (stereo unspecified) | inactive |
| O=C(c1cc(F)ccc1F)N1CCN(c2cc(-c3ccc(Cl)cc3)[nH]n2)CC1 | active: 28.2 µM |
| COc1ccccc1Nc1ccnc(N2CCC(C(=O)NCCCc3ccccc3)CC2)n1 | inconclusive: 14.1 µM [inhibitor, full curve, poor fit] |
| Cc1cccc(C)c1-c1nc(C(=O)NCc2ccsc2)n2ccccc12 | inconclusive: 50.1 µM [inhibitor, partial curve, poor fit] |
| CC(C)CCNC(=O)c1ccc2c(c1)N(S(=O)(=O)c1ccccc1)CC2 | inconclusive: 50.1 µM [inhibitor, partial curve, poor fit] |
| CC(C)CCN1CCc2c(n(CCOc3ccccc3)n(-c3ccccc3)c2=O)C1 | active: 100 µM |
| COc1ccc(C(=O)Nc2ccc([C@@H](O)[C@H]3COCC(=O)N3Cc3ccc(F)cc3)cc2)cc1OC | inactive |
| O=C(NCC1Cn2cccc2C(=O)N1Cc1ccccc1)c1ccc2ccccc2n1 (stereo unspecified) | inconclusive: 39.8 µM [inhibitor, partial curve] |
